# The source gives no read counts; variants with many changes may rest on few reads.
# B1: LINE1-full (parent)
# chain: UACGUAGGUGGUUUUCCCCUGAUAGUGCUAAGGGGGCCUGGAAGUUUGGACUGGGCAGAGCUCAACACAGCGUGGCAAAGUGGCUGUGGCUAGACUGCCUCUCUGGAUUCCUCGUCACUCAGCAGGGCAUCUCUGAGAGAAAUGCC
# Variants of: B1
# Experiment: self-cleavage, relative activity (ratio to wild type); higher = more cleavage; in vitro, sequencing; the parent is a self-cleaving ribozyme
row,Variant,self-cleavage
1,U12G A43U A107G,0.98
2,U12G A43U U46C A138G,0.38
3,U12G A50G A59G A79U,0.34
4,U12G A50G A64U A129G,1.09
5,U12G A50G A77U,0.87
6,U12G A50G C103A U112C U130C,1.31
7,U12G A50G U73C,1.84
8,U12G A50U G126A,0.82
9,U12G A57U U115C U119G A136G A142G,1.15
10,U12G A59G G75A,0.11
11,U12G A64G C133U,0.24
12,U12G A64U A94G,0.45
13,U12G A67C A94U A129G U132C,0
14,U12G A67U A77G U104C,0
15,U12G A69G A140G,0.69
16,U12G A78U U119A,1.96
17,U12G A107U G126A G127U U132C C146A,1.37
18,U12G C19U G33A A50G C84A,0.07
19,U12G C28U U104A,0.59
20,U12G C37A A57U U81C A129G A138U,0
21,U12G C38A U46C A67G U108C A124U U134A A138U,0.44
22,U12G C98U U102C,0.32
23,U12G G32A A140G,1.39
24,U12G G35U A94U,0.44

row,Variant,self-cleavage
1,U12G G36C A43G A57G U85C,0.48
2,U12G G41A A57G,0.64
3,U12G G41A U119C U132C G139U,1.34
4,U12G G54A A117G,0.94
5,U12G G97A U119C A138U,0.25
6,U12G U13A U119C U143C,0.88
7,U12G U13C G35U A43G,1.16
8,U12G U13C U45C U112A,0
9,U12G U14A G53A A78U U85A U91A,0.19
10,U12G U14C U85G A121C U143A,0
11,U12G U14C U100A A121G,0.31
12,U12G U15A A43G U47A U87A U96A,0.25
13,U12G U15C A67G A77U C146U,0.87
14,U12G U15C U85C,0
15,U12G U20C A94G G127A,1.02
16,U12G U20C U23C C133U A142G,1.13
17,U12G U20C U115C A129U,1.72
18,U12G U29A U108C A140G,0.84
19,U12G U29C U39C A43G G54A,1.24
20,U12G U39C C68A A77G U81C,0.19
21,U12G U39G A94U U134C,0.29
22,U12G U46C G48A A50G,0.88
23,U12G U46C U102A A142G,1.06
24,U12G U47A A79G A107G U112C A142G,1.31

row,Variant,self-cleavage
1,U12G U47A U87A A124G,0
2,U12G U47C A59G U81C,0
3,U12G U47C G53A U112C,1.78
4,U12G U52C A78G G83A,1.04
5,U12G U62C U132C,0.04
6,U12G U85A C110A,0.09
7,U12G U85C U91C,0.71
8,U12G U85C U130A,0.09
9,U12G U87C A121G,0
10,U12G U87C A129U,1.1
11,U12G U87C U104A U132C,0.19
12,U12G U91C A121G,1.11
13,U12G U96C U134C,0.63
14,U12G U108C U132C,1.56
15,U12G U115A A121U U130C,1.02
16,U13A A22G A57C U132C U143C,0
17,U13A A22G A64U U112C U119A,0.27
18,U13A A22U C51A U109C,1.17
19,U13A A22U U85C,0.28
20,U13A A24G A50U A67U U130A A140G,0.04
21,U13A A24G U26A G80C U104C G105U,0.83
22,U13A A24U A59G,0.06
23,U13A A30U A67G U73C,0.77
24,U13A A31G U62A U108C,0.16

row,Variant,self-cleavage
1,U13A A31U U39C U62C A77G U104C,0
2,U13A A31U U62C,0.03
3,U13A A31U U73C U100A U109C,0.51
4,U13A A42G U45C,0.56
5,U13A A42G U100C,1.69
6,U13A A43G A57U U62G,0.19
7,U13A A43G A94G,0.2
8,U13A A50G A142G,0.66
9,U13A A57U U112C,0.1
10,U13A A64C A140U,0
11,U13A A64U U96C U104A A142U,0.05
12,U13A A65G A79G U134C,0
13,U13A A65G U85C,0.09
14,U13A A67G A94G,0
15,U13A A69G A121G,0
16,U13A A77G G126A A140U,1.25
17,U13A A78U A92G U130C,0.06
18,U13A A79G U108C,2.04
19,U13A A94G A129G U130C,0
20,U13A C16A A78G,0.47
21,U13A C28U C103A,0.93
22,U13A C38A U134A,0.98
23,U13A G21A A64G C113A,0.09
24,U13A G36A A50G A57G,0.28

row,Variant,self-cleavage
1,U13A G88U A124G A136U,0.04
2,U13A U14C U23C U47G U87G,0.21
3,U13A U14C U87C,0.38
4,U13A U14C U143C,0.95
5,U13A U15A A22U U47C,0.46
6,U13A U15A A59U A79G G125A,0.39
7,U13A U15A U39C A79G U96C,0
8,U13A U15C A69G,0.19
9,U13A U20A U29C A42G C99U U108C,0.64
10,U13A U20C A22G U100C U119C C131A,1.53
11,U13A U20C U52A U62G A92G G93A,0
12,U13A U23A C90U U100A,0.02
13,U13A U29A A42G A69U A129G,0.1
14,U13A U29A C71U,0.74
15,U13A U29C A92G U130A,0.12
16,U13A U29C C51U C76U U100A A107G,2.06
17,U13A U29C C133A A138G,1.09
18,U13A U45A U73C A124G G126U A129C A141G,1.12
19,U13A U45C A69G,0.27
20,U13A U45C G53A,2.09
21,U13A U46A A107G A129U,1.04
22,U13A U46C A92U G97A A142G,0.05
23,U13A U46C U62C C71U A140G,0.04
24,U13A U47A C56U U132A,0.09

row,Variant,self-cleavage
1,U13A U47A U96C A129U,0.08
2,U13A U47C A50G C111U,0.89
3,U13A U52C A94U,0.48
4,U13A U52C G54A U112G U130C,0.74
5,U13A U62C A141G,0.01
6,U13A U62C U96C U143C,0.04
7,U13A U73C A136G,1.45
8,U13A U81A G83A,1.21
9,U13A U87A U100C,0.21
10,U13A U100C U104C,0.81
11,U13A U102C A140G,1.33
12,U13A U102C G114A U119C C128U,0.55
13,U13C A22G A42G A79U U119C,1.62
14,U13C A22G A64G A77U,0.15
15,U13C A22G A92G U134C,0.53
16,U13C A22G A121C,2.21
17,U13C A22G G53U G127C A140G,1.02
18,U13C A22G G58U G74A,0
19,U13C A22G U62C A129U U132C,0.46
20,U13C A22G U81G U132C,0
21,U13C A22U U26C A59G U62A,0.19
22,U13C A24G A67C U85C G139U,0.25
23,U13C A24G U26C U81C G83A,0.48
24,U13C A24G U45A A59G U112A A136U,0.22

row,Variant,self-cleavage
1,U13C A24G U102C A117G,0.92
2,U13C A24U A42G A64G,0
3,U13C A24U A43G U109C,0
4,U13C A30G G55A,0.94
5,U13C A30G G60A G75A,0.28
6,U13C A30G G74A,0.85
7,U13C A30G G125U,1.5
8,U13C A30G U45C U81A,0.88
9,U13C A30G U143C,0
10,U13C A30U U46C U100A,1.11
11,U13C A31G A43U U45A,1.33
12,U13C A31G A50G,0
13,U13C A31G U39A A129U,1.03
14,U13C A31U G127C,0.81
15,U13C A42G A43G A69U U134C,0
16,U13C A42G A57G,0
17,U13C A42G A77G A140G,1.97
18,U13C A42G G139U,1.26
19,U13C A42G U45C A79G G86A U109C,0.14
20,U13C A42G U47C C90U,0.15
21,U13C A42G U96C U143C,0
22,U13C A42G U102A U130C,1.39
23,U13C A42G U109A C118A,0.91
